According to the antibiotic and cytotoxicity screens of Wong et al. (2023):
The list shows a part of the results.

Tests used:
HSkMC = human skeletal muscle cells; assay: cytotoxicity call (relative viability < 0.9); settings: 10 µM
HepG2 = assay: cytotoxicity call (relative viability < 0.9); settings: 10 µM
S. aureus RN4220 = assay: growth inhibition call (relative growth <= 0.2); settings: 50 µM

| SMILES | cytotoxicity call (HSkMC) | cytotoxicity call (HepG2) | growth inhibition call (S. aureus RN4220) |
| --- | --- | --- | --- |
| COc1cccc(-c2ccc3c(c2)O[C@@H](CN(C)C(=O)C2CC2)[C@@H](C)CN([C@@H](C)CO)S3(=O)=O)c1 | inactive | inactive | inactive |
| Cc1ccn2c(=O)c(C(=O)O)cnc2c1 | inactive | inactive | inactive |
| CC(C)CC#Cc1ccc2c(c1)O[C@H](CN(C)C(=O)c1cnccn1)[C@@H](C)CN([C@@H](C)CO)S2(=O)=O | inactive | inactive | inactive |
| C[C@@H]1CN([C@@H](C)CO)C(=O)c2cccc(NS(=O)(=O)c3ccccc3)c2O[C@H]1CN(C)CC1CC1 | inactive | inactive | inactive |
| C=CCOC(=O)[C@H]1[C@@H]2C(=O)O[C@@H](c3ccccc3)[C@@H](c3ccccc3)N2[C@@H](c2ccc(OCCOC(=O)[C@@H]3C[C@@H]4C(=O)N[C@@H](CCCC[N+](C)(C)C)C(=O)N4[C@@H]3c3cccc(OCCO)c3)cc2)[C@]12C(=O)Nc1ccc(I)cc12 | inactive | inactive | inactive |
| OC[C@@H]1COCCN1Cc1ccccc1 | inactive | inactive | inactive |
| C[C@@H]1CN([C@H](C)CO)C(=O)c2cc(NC(=O)Nc3cccc4ccccc34)ccc2O[C@@H]1CN(C)Cc1ccc2c(c1)OCO2 | inactive | inactive | inactive |
| C[C@@H]1CN([C@@H](C)CO)S(=O)(=O)c2ccc(C#Cc3ccncc3)cc2O[C@@H]1CN(C)C(=O)Nc1ccc2c(c1)OCO2 | inactive | active | inactive |
| COc1ccc([Si](C)(C)[C@H]2[C@H](CC(=O)N(CCO)Cc3ccccc3)O[C@@]3(C(=O)N(Cc4ccc(N5C(=O)c6cccc7cccc5c67)cc4)c4ccccc43)[C@@H]2C)cc1 | inactive | active | inactive |
| NCC(=O)NCC(=O)O | inactive | inactive | inactive |
| Cc1ccc(S(=O)(=O)N(C)C[C@@H]2Oc3ccc(NC(=O)C4CC4)cc3CC(=O)N([C@@H](C)CO)C[C@@H]2C)cc1 | inactive | active | inactive |
| C[C@@H]1CN([C@@H](C)CO)C(=O)c2cc(NC(=O)CCC(F)(F)F)ccc2O[C@@H](C)CCCCO[C@@H]1CN(C)C(=O)c1ccccc1 | inactive | inactive | inactive |
| CC(C)NC(=O)N(C)C[C@H]1Oc2ccc(NS(=O)(=O)c3ccc(F)cc3)cc2CC(=O)N([C@H](C)CO)C[C@H]1C | inactive | inactive | inactive |
| C[C@@H]1CN([C@@H](C)CO)C(=O)c2cc(-c3ccncc3)cnc2O[C@H]1CN(C)S(=O)(=O)c1ccc(F)cc1 | inactive | inactive | inactive |
| C[C@H]1CN([C@@H](C)CO)C(=O)c2cccc(N(C)C)c2O[C@H]1CN(C)S(C)(=O)=O | inactive | inactive | inactive |
| CO[C@H]1CN(C)C(=O)c2cc(NC(=O)Nc3ccccc3F)ccc2OC[C@@H](C)N(CCC(F)(F)F)C[C@H]1C | inactive | inactive | inactive |
| COc1ccc2c3c(n(c2c1)C)[C@H](CO)N(C[C@]13CN(C1)S(=O)(=O)c1cn(cn1)C)C(=O)Nc1ccc(cc1)F | inactive | inactive | inactive |

| SMILES | cytotoxicity call (HSkMC) | cytotoxicity call (HepG2) | growth inhibition call (S. aureus RN4220) |
| --- | --- | --- | --- |
| C[C@@H]1CCCCO[C@H](CN(C)Cc2ccc(C(=O)O)cc2)[C@H](C)CN([C@@H](C)CO)C(=O)c2cc(NS(=O)(=O)c3ccc(Cl)cc3)ccc2O1 | inactive | inactive | inactive |
| CC(C)NC(=O)Nc1ccc2c(c1)C(=O)N([C@@H](C)CO)C[C@H](C)[C@H](CN(C)S(=O)(=O)c1cn(C)cn1)O2 | inactive | inactive | inactive |
| C[C@@H]1CN([C@H](C)CO)C(=O)c2cccc(NC(=O)c3ccno3)c2O[C@H]1CN(C)S(=O)(=O)c1cccs1 | inactive | inactive | inactive |
| C[C@@H]1CN([C@@H](C)CO)C(=O)Cc2cc(NC(=O)Nc3ccc(C(F)(F)F)cc3)ccc2O[C@H]1CN(C)Cc1ccc(-c2ccccc2)cc1 | active | active | inactive |
| C[C@H](CO)N1C[C@H](C)[C@@H](CN(C)C(=O)Nc2ccc3c(c2)OCO3)Oc2ccc(NS(=O)(=O)c3cn(C)cn3)cc2CC1=O | inactive | inactive | inactive |
| Cc1ccc(S(=O)(=O)Nc2ccc3c(c2)C(=O)N([C@@H](C)CO)C[C@H](C)[C@@H](CN(C)C(=O)Nc2ccc(C(F)(F)F)cc2)OCCCC[C@H](C)O3)cc1 | inactive | active | inactive |
| O=C(C[C@@H]1CC[C@H]2[C@@H](COC[C@@H](O)CN2S(=O)(=O)c2ccccc2Cl)O1)NCc1ccccc1Cl | inactive | inactive | inactive |
| C[C@@H]1CCCCO[C@H](CN(C)S(=O)(=O)c2cccs2)[C@@H](C)CN([C@H](C)CO)C(=O)c2cc(NC(=O)NC3CCCCC3)ccc2O1 | inactive | inactive | inactive |
| CC#CC(=O)NS(=O)(=O)c1ccccc1 | inactive | inactive | inactive |
| CN1C[C@H](O)COC[C@@H]2O[C@@H](CC(=O)N3CCN(c4ccccc4)CC3)CC[C@H]21 | inactive | inactive | inactive |
| O=C(O)[C@H]1[C@H](CO)[C@H]2Cn3c(ccc(-c4cncnc4)c3=O)[C@H]2N1C(=O)C1CCC1 | inactive | inactive | inactive |
| C[C@H]1CN([C@@H](C)CO)C(=O)c2cccc(NC(=O)c3ccncc3)c2O[C@@H]1CN(C)Cc1ccc2c(c1)OCO2 | inactive | inactive | inactive |
| C[C@H](CO)N1C[C@H](C)[C@@H](CN(C)C(=O)Nc2ccc(F)cc2)OCCCC[C@H](C)Oc2ccc(NC(=O)Nc3cccc4ccccc34)cc2C1=O | inactive | inactive | inactive |
| C=CCOC(=O)N(C)C[C@@H]1Oc2ccc(NC(=O)OCC3c4ccccc4-c4ccccc43)cc2C(=O)N([C@H](C)CO)C[C@H]1C | inactive | inactive | inactive |
| COCC(=O)Nc1ccc2c(c1)C(=O)N(C)C[C@H](OC)[C@@H](C)CN(Cc1cccc(F)c1)[C@@H](C)CO2 | inactive | inactive | inactive |
| C[C@@H]1CN([C@H](C)CO)C(=O)c2cc(NC(=O)C3CCCCC3)ccc2O[C@@H](C)CCCCO[C@@H]1CN(C)Cc1ccccc1 | inactive | inactive | inactive |
